Among all 270,000 compounds or so, about 5,800 (2.1%) were called active. The inconclusive results got no clear call from the source; some entries with a clear call stand among them for comparison. Calls come from the whole dose curve; as a rule, active = well fitted inhibition curve with a large enough effect; inconclusive = small, poorly fitted or top-dose-only effect; inactive = flat fitted curve, though single readings scatter. Potencies of inconclusive entries are doubtful fits and often do not repeat.
Molecular target: Microtubule-associated protein tau (Homo sapiens) (UniProt P10636)
Experiment: qHTS for Inhibitors of Tau Fibril Formation, Thioflavin T Binding; note: nearly all actives have a fitted effect of over 55% in size
Details: recombinant tau K18 P301L (four-repeat tau fragment), heparin-induced fibrillization, ThT fluorescence; series mostly up to 57.4 µM
Outline: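 In this qHTS, human K18 P301L tau is incubated with compound and heparin for 6 hr at 37 C, and Thioflavin T fluorescence then reports fibril load.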
Potency is the fitted concentration of half-maximal effect; tags give direction and shape of the fitted curve.

UniProt P10636, sequence (P10636 whole entry, looked up): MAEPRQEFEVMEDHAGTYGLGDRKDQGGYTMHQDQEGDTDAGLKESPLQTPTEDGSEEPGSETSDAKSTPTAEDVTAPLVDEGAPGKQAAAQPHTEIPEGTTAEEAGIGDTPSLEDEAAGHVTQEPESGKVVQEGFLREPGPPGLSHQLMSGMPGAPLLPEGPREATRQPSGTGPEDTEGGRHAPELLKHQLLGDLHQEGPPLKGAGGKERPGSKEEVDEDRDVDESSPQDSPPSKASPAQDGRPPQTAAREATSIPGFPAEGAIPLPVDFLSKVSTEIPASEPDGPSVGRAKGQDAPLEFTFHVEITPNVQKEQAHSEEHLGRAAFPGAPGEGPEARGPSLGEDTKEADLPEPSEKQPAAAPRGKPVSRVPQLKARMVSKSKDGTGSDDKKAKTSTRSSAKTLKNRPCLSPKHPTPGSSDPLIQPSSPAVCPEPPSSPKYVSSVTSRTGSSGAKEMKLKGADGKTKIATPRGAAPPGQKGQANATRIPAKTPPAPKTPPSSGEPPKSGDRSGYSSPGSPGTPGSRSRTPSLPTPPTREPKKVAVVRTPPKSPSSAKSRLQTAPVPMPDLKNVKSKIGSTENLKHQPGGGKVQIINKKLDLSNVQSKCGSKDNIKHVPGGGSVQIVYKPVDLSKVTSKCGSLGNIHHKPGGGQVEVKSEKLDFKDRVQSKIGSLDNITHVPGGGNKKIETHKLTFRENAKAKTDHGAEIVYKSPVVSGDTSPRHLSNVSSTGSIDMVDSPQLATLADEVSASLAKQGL

Compound | Potency
NC(=O)CC(NC(=O)c1ccccc1)c1ccc(NCc2ccc(F)cc2)c([N+](=O)[O-])c1 (configuration not stated) | active: 25.1 µM
COc1ccc(CCNc2nc(-c3ccc(NC(C)=O)cc3)cs2)cc1OC | inconclusive: 14.1 µM [inhibitor, partial curve]
C/C(=N\NC(=O)c1csc(C)c1C)c1ccc(C)s1 | inconclusive: 3.16 µM [inhibitor, partial curve]
Cc1ccc(S(=O)(=O)N/N=C/c2c[nH]c3ccccc23)cc1 | inconclusive: 31.6 µM [inhibitor, single point]
CC(=O)NC1C(=O)N=C(SC(C)C(=O)Nc2cccc(Cl)c2)NC1=O (configuration not stated) | inactive
Cc1ccc2nc(SCC(=O)c3ccc4c(c3)OCO4)[nH]c2c1 | inconclusive: 10 µM [inhibitor, partial curve]
CCOC(=O)C1C2C=CC3(CN(Cc4ccccc4)C(=O)C13)O2 (configuration not stated) | inactive
COC(=O)c1cc2ccsc2n1Cc1cccc(F)c1 | inconclusive: 31.6 µM [inhibitor, single point]
COc1ccccc1NC(=O)N1CCCC1 | inactive
CCC(Sc1nc2ncccc2[nH]1)C(=O)Nc1ccccc1F (configuration not stated) | inactive
O=C(Cn1cc(C(=O)c2cccs2)c2ccccc21)NC1CCCCC1 | inconclusive: 22.4 µM [inhibitor, single point]
Nc1c(C(=O)NCC2CCCO2)sc2nc3c(c(-c4ccco4)c12)CC/C3=C\c1ccco1 (configuration not stated) | active: 15.8 µM
CCC(Cn1nnc2ccccc2c1=O)NC(=O)Nc1ccccc1Cl (configuration not stated) | inconclusive: 3.55 µM [inhibitor, single point]
S=C(NCc1ccco1)NCC1CCCO1 (configuration not stated) | inactive
Cc1ccc(S(=O)(=O)N(CC(O)Cn2c3ccccc3c3ccccc32)c2cccc(C(=O)NCCO)c2)cc1 (configuration not stated) | inactive
CCCC(c1nnnn1C1CCCC1)N1CCN(c2ccccc2F)CC1 (configuration not stated) | inactive
Cn1c(-c2ccc(C(C)(C)C)cc2)n[nH]c1=S | inactive
Cn1c(N)c(C(=O)Nc2ccccc2F)sc1=S | inconclusive: 3.16 µM [inhibitor, partial curve, poor fit]
COc1ccc(-c2ccc(SCC(=O)Nc3nccs3)nn2)cc1OC | inconclusive: 0.708 µM [inhibitor, partial curve]
Cc1nn(-c2nnc(NC3CCCCC3)nn2)c(C)c1Br | inconclusive: 14.1 µM [inhibitor, partial curve]
COC(=O)c1ccc2c(=O)n(CCCCCC(=O)N3CCN(c4cccc(C)c4C)CC3)c(=O)[nH]c2c1 | inconclusive: 1.12 µM [inhibitor, full curve]
CCOc1ccc(NC(=O)c2cc3nc(-c4ccc(OC)cc4)cc(C(F)(F)F)n3n2)cc1 | inconclusive: 0.891 µM [inhibitor, full curve, poor fit]
Cn1nc(-c2ccccc2F)c2cc(C(=O)N3CCN(c4ccccc4F)CC3)sc21 | inactive
CCOc1cc(CNc2ccc(O)cc2)cc(Cl)c1OCc1ccccc1 | inconclusive: 28.2 µM [inhibitor, partial curve]

Compound | Potency
O=C(Cn1c(O)c(/C=C2\C=Nc3ccccc32)sc1=O)N1CCOCC1 | inactive
Cc1ccc(S(=O)(=O)N2CCCc3cc(NC(=O)c4cccc(Cl)c4)ccc32)cc1 | inactive
CCc1cc[n+](-c2nc([O-])sc2C=O)cc1 | inconclusive: 15.8 µM [inhibitor, partial curve]
Cc1nc(NC(=O)CSc2cc(C)c3ccccc3n2)c(Cl)cc1Cl | inactive
CCc1ccccc1NC(=O)c1ccc(F)c(S(=O)(=O)N2CCN(c3ccccc3OC)CC2)c1 | inactive
Cc1nc2nc(NCc3cccs3)nn2c(C)c1Cl | inactive
N#CC(=C=[N-])C1=C(C#N)C(c2ccccc2F)C([n+]2ccccc2)C(O)(C2CC2)N1 (configuration not stated) | inconclusive: 20 µM [inhibitor, partial curve]
O=C(O)c1cccc(NC(=S)N/N=C/c2ccccc2OCc2ccc(Br)cc2)c1 | inconclusive: 6.31 µM [inhibitor, partial curve]
COc1ccc(-c2csc(NC(=S)NC(=O)/C=C/c3ccco3)n2)cc1Br | inconclusive: 7.94 µM [inhibitor, partial curve]
CCc1nnc(N/N=C/c2ccc(-c3ccc([N+](=O)[O-])cc3)o2)n1N | active: 1.78 µM
N#C/C(=C/c1ccc(N2CCOCC2)o1)C(=O)NC1CCCCC1 | inconclusive: 17.8 µM [inhibitor, partial curve]
CCc1c(C)nc2c(-c3ccccc3)c(C)nn2c1Nc1ccc(NC(C)=O)cc1 | inconclusive: 35.5 µM [inhibitor, single point]
COc1ccc(-c2noc(CSc3nc(-c4ccccc4)cc(=O)[nH]3)n2)cc1OC | inactive
COc1ccc(Nc2nc(N)nc(CSc3n[nH]c(-c4ccccc4)n3)n2)cc1 | inconclusive: 11.2 µM [inhibitor, partial curve]
O=C(O)CCSCC(=O)c1ccc2c(c1)OCCO2 | inconclusive: 14.1 µM [inhibitor, partial curve]
COc1ccc(NC(C)C(=O)N/N=C/c2cc(Br)ccc2OC)cc1 (configuration not stated) | inconclusive: 20 µM [inhibitor, single point]
CCCN(CCC)CCCNC(=O)CC(C(=O)N1CCc2ccccc21)n1ccnc1 (configuration not stated) | inactive
Oc1c(N=Nc2ccccc2)sc2ccccc12 | active: 2.51 µM
CC(C)c1ccc(NC(=O)Nc2cc3sccc3n2C)cc1 | inconclusive: 14.1 µM [inhibitor, partial curve]
CCc1cc(SC#N)cc(C)c1NC(=O)CCl | inactive
Cc1ccc(NC(=O)CC(c2ccc(F)cc2)N2Cc3ccccc3C2=O)cc1C (configuration not stated) | inconclusive: 10 µM [activator, partial curve, poor fit]
CCOC(=O)Cn1c(=O)oc2cc(S(=O)(=O)Nc3cc(Cl)ccc3OC)ccc21 | inactive
CCOC(=O)C1C(C(=O)OC)=C(C2=CCCCC2)c2ccccc2N1S(=O)(=O)C(F)(F)F (configuration not stated) | inconclusive: 22.4 µM [inhibitor, partial curve, poor fit]

Source: PubChem BioAssay AID1460 (National Center for Advancing Translational Sciences (NCATS), 2008)
